Consider 48 molecules from PubChem BioAssay AID1508624 (National Center for Advancing Translational Sciences (NCATS), 2021).

SMILES strings stand for the structures. The campaign covered roughly 48,000 compounds. About 120 (0.25%) were called active. Inconclusive results (about 4%) are left out. Calls come from the whole dose curve; as a rule, active = well fitted activation curve with a large enough effect; inconclusive = small, poorly fitted or top-dose-only effect, or another doubt; inactive = no such curve, though single readings can be large or run the other way. The list shows a part of the results.

The nature of the assay: Primary qHTS for Identification of Small Molecule Activators of Huntingtin-Antisense Promoter Activity. Note: nearly all actives have a fitted effect of over 55% in size. Conditions: HEK293 HTT-AS promoter firefly luciferase reporter, 24 h; series mostly up to 57.5 µM; activity change, positive = activation: at the top concentration. An outline of the steps:
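HEK293 Fluc reporter, 2,500 cells/well, 24 h pre-culture; cpds up to 57.5 uM final, 24 h 37 degrees C; Dual-Glo, 10 min RT; normalized vehicle = 0%, zero RLU = -100%.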
(In general: Quantitative high-throughput screening tests each substance at several concentrations.)
Take `CCCCCOc1ccccc1Cn1c(=O)oc2ccc(C)cc21`: the “activity change, positive = activation” value was inactive: -15.1%.
In the case of `Cc1nn(C(C)C(=O)Nc2cccc(F)c2)c(=O)c2c1sc1ccccc12` (stereo not drawn), the “activity change, positive = activation” value is inactive: -21.7%.
In the case of `COCCNC(=O)CCSc1nc(-c2ccc(OC)cc2)cc(C(F)(F)F)n1`, the “activity change, positive = activation” value was inactive: -22.2%.
Consider `Cc1ccc(Nc2c(-c3ccc(N4CCOCC4)cc3)nc3ncccn23)c(C)c1`, for which the “activity change, positive = activation” value was inactive: -9.99%.
With `Cc1ccc(CNC(=O)CC(C)CC2=NS(=O)(=O)c3ccccc3N2)cc1` (stereo not drawn), the “activity change, positive = activation” value is inactive: -22.3%.
Next, `CCc1ccc(N2CCn3c2nc2c3c(=O)n(C/C=C/c3ccccc3)c(=O)n2C)cc1`: inactive: -5.02%; `COC(=O)C1=C(C)NC(C)=C(C(=O)OCCN(C)Cc2ccccc2)C1c1cccc([N+](=O)[O-])c1` (stereo not drawn): inactive: -73.7%; `COc1ccc(NC(=O)c2c(NCc3ccc(N(C)C)cc3)sc3c2CCC3)cc1`: inactive: -0.32%.
Next, `CCOc1ccccc1NC(=O)N(Cc1ccc(F)cc1)C1CCN(CC)CC1`: inactive: -11.5%; `Cc1ccsc1CN(C(=O)c1oc2ccc(F)cc2c1C)C1CCS(=O)(=O)C1` (stereo not drawn): inactive: -33.6%; `Cc1ccc(Nc2ncc(C(=O)N3CCN(c4ccc(F)cc4)CC3)c3ccccc23)cc1Cl`: inactive: -21%.
For `CCOc1ccc(-c2nonc2NC(=O)c2oc3cc(C)c(C)cc3c2C)cc1OCC`, the “activity change, positive = activation” value is inactive: 3.82%.
For the molecule `Cc1ccc(NC(=O)C2CCCN2S(=O)(=O)c2cccc3nsnc23)c(C)c1` (stereo not drawn), the “activity change, positive = activation” value was inactive: -18.5%.
For `Cc1ccc(C)c(-n2c3nc(=O)[nH]c(=O)c-3cc3c(C)nn(-c4ccccc4)c32)c1`, the “activity change, positive = activation” value is inactive: -10%.
With `CCc1ccc(NC(=O)c2ccc(F)c(S(=O)(=O)N3CCC4(CC3)OCCO4)c2)cc1`, the “activity change, positive = activation” value was inactive: -24.8%.
Next, `COc1cccc(CNS(=O)(=O)c2cc3[nH]c(=O)c(=O)[nH]c3cc2C)c1`: inactive: -6.74%.
`Cc1ccc(S(=O)(=O)C(CNC(=O)c2ccc(F)c(F)c2)c2ccco2)cc1` (stereo not drawn): the “activity change, positive = activation” value is inactive: -14.5%.
Consider `O=C(CSc1oc(-c2ccco2)nc1S(=O)(=O)c1ccc(Br)cc1)c1ccccc1`, for which the “activity change, positive = activation” value is inactive: -2.45%.
Take `CCC(=O)C1=C(c2ccc(Cl)cc2)N(C(=O)CC)n2c(C)nnc2S1`: the “activity change, positive = activation” value is inactive: -11.3%.
Consider `CCS(=O)(=O)c1ccc(O)c(Nc2cc(C)nc(SC)n2)c1`, for which the “activity change, positive = activation” value was inactive: -40.7%.
Next, `CCCCn1c(=O)c2oc3ccccc3c2n(Cc2cccc(F)c2)c1=O`: inactive: -28%; `CCC(C)Cn1c(/C=C/c2ccccc2)nc2ccccc21` (stereo not drawn): inactive: -8.07%.
In the case of `CCc1nnc2c(Nc3cccc(F)c3)nc3ccc(C(=O)c4ccccc4)cc3n12`, the “activity change, positive = activation” value is inactive: -30.2%.
For the molecule `CCOC(=O)c1cccc(NC(=O)c2cc3c(=O)n(C)c4ccccc4c3n2C)c1`, the “activity change, positive = activation” value was inactive: 3.51%.
As for `Cc1ccc(CNC(=O)CCN2C(=O)COc3ccc(C)cc32)cc1`, the “activity change, positive = activation” value was inactive: -8.34%.
As to `Cc1cc(C)cc(NC(=O)c2ccc3c(c2)nnn3C2CCCC2)c1`, the “activity change, positive = activation” value is inactive: -25.4%.
In the case of `Cc1ccc(NC2=C(CC(=O)O)C(c3ccc(F)cc3)N(c3ccc(C)cc3)C2=O)cc1` (stereo not drawn), the “activity change, positive = activation” value is inactive: 9.47%.
The same measure for `Cc1cncc2cccc(S(=O)(=O)N3CCCN(C(=O)CN)C[C@@H]3C)c12`: inactive: -0.321%; for `CC(C)c1cnc2c(c1SCC(=O)Nc1ccc(OC(F)(F)F)cc1)c(=O)n(C)c(=O)n2C`: inactive: -13.6%.
As for `CC1CCN(S(=O)(=O)c2nnc(NC(=O)c3ccc(C(C)C)cc3)s2)CC1`, the “activity change, positive = activation” value was inactive: -17.8%.
With `O=C(CCCN1C(=O)c2cccnc2Oc2ccc(Cl)cc21)NCc1ccccc1F`, the “activity change, positive = activation” value was inactive: -22%.
Turning to `Cc1ccc(C)c(N2CCN(C(=O)c3cc(C)nc4c3c(C)nn4-c3cccc(F)c3)CC2)c1`, the “activity change, positive = activation” value is inactive: -25.3%.
Regarding `Cc1ccc(C)c(N2CCN(c3ccc4cc(S(=O)(=O)N5CCC(C)CC5)ccc4n3)CC2)c1`, the “activity change, positive = activation” value is inactive: -4.49%.
Next, `CCOc1ccc(C(=O)NCCc2sc(-c3ccc(OC)c(OC)c3)nc2C)cc1`: inactive: -0.146%.
The same measure for `Cc1ccccc1OCC(=O)Nc1sc2c(c1C(=O)OC(C)C)CCCC2`: inactive: 9.45%; for `CCn1c(C(=O)NCc2ccc(OC(C)C)cc2)cc2oc3ccccc3c21`: inactive: -32.3%; for `CCOc1ccc(-n2c(SCC(=O)N3CCC(C)CC3)nc3c([nH]c4ccccc43)c2=O)cc1`: inactive: -13.2%.
Next, `Cc1cccc(-n2c(=O)c3c(c4cc(C)ccc4n3C)n(CC(=O)NCC3CCCO3)c2=O)c1` (stereo not drawn): inactive: -8.29%; `CCCOc1ccc(C(=O)Nc2cc3c(cc2N2CCOCC2)n(C)c(=O)n3C)cc1`: inactive: -12.2%; `Cc1oc(-c2cccc(Cl)c2)nc1CS(=O)(=O)CC(=O)NCc1ccccc1Cl`: inactive: -18.3%.
For `Cc1ccc2c(c1)c(=O)c1ccccc1n2CCCC(=O)Nc1cc(Cl)ccc1C`, the “activity change, positive = activation” value was inactive: -18.6%.
The same measure for `CCCCCCCCCCCCOCCO`: inactive: 0.0549%.
As to `COC(=O)c1ccc(C2c3c(oc4ccccc4c3=O)C(=O)N2c2nc(C)c(C(=O)OC)s2)cc1` (stereo not drawn), the activity change, positive = activation was inactive: -7.23% [at 11.5 µM, percent change from vehicle, -100% = no light].
As to `O=C(Nc1cc(Cl)cc(Cl)c1)c1ccc2c(c1)N(Cc1cccc(Cl)c1)C(=O)c1ccccc1S2=O` (stereo not drawn), the “activity change, positive = activation” value is inactive: -13.7%.
Turning to `Cc1nn(CC(=O)O)c(=O)c2cc3cc(F)ccc3n12`, the “activity change, positive = activation” value is inactive: -2.08%.
Regarding `COc1ccc2c(CNCc3cccs3)c(C(=O)O)n(Cc3ccc(C)cc3)c2c1`, the “activity change, positive = activation” value is inactive: -15.9%.
For the molecule `Cc1ccccc1Cn1c2ccccc2c2cnn(CC(=O)NC(C)CCc3ccccc3)c(=O)c21` (stereo not drawn), the “activity change, positive = activation” value was inactive: -21.7%.
`CCc1ccc2oc(C(=O)Nc3c(C)n(C)n(-c4ccccc4)c3=O)cc(=O)c2c1`: the activity change, positive = activation is inactive: -6.44% [at 11.5 µM, percent change from vehicle, -100% = no light].
